# Source: the BET-seq Pho4 binding data (Le et al. 2018)
# This is one part of the list. These are noisy estimates, calculated here from bound and input reads.
# Molecular target: T1, Pho4 (S. cerevisiae) (UniProt P07270)
# T1 sequence: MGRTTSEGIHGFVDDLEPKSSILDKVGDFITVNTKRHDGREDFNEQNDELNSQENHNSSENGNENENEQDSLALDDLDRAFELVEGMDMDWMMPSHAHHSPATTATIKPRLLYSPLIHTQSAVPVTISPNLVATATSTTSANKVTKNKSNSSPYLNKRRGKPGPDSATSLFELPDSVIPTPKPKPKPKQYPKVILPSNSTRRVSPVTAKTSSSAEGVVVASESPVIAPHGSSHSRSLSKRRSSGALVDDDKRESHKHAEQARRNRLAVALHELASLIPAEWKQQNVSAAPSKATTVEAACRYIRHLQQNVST
# Experiment: relative binding free energy (BET-seq); higher = weaker binding
# Details: reference: library average
row,Sequence,relative binding free energy
1,GGTGTCACGTGCGGCC,0.251 kJ/mol
2,ATAAACACGTGGATGT,-0.46 kJ/mol
3,CTGTTCACGTGGTTTC,1.09 kJ/mol
4,CTTGTCACGTGGCATT,0.167 kJ/mol
5,AAAGGCACGTGTAAAT,0.628 kJ/mol
6,TTTGTCACGTGAATTT,1.38 kJ/mol
7,CAGGTCACGTGTAGGA,0.544 kJ/mol
8,GGCCGCACGTGGGGTA,-1.13 kJ/mol
9,TGGGCCACGTGGTAGA,-0.879 kJ/mol
10,TTGGTCACGTGGCGAA,0.293 kJ/mol
11,TGAGACACGTGGGGTG,0 kJ/mol
12,CATCGCACGTGGGGGT,-1.51 kJ/mol
13,GGCAGCACGTGTCTGG,0.418 kJ/mol
14,TCGTTCACGTGTTTTG,1.3 kJ/mol
15,CGGTGCACGTGCTGGT,-0.0418 kJ/mol
16,TTGCTCACGTGTATAT,0.879 kJ/mol
17,TGCGGCACGTGAGTAG,-0.0837 kJ/mol
18,GTAGCCACGTGTATTG,0.0837 kJ/mol
19,ATGGGCACGTGGAGGG,-0.795 kJ/mol
20,CGTGCCACGTGTGGGT,0.167 kJ/mol
21,TAGTGCACGTGTTGAC,0.251 kJ/mol
22,AATGTCACGTGACGTT,0.628 kJ/mol
23,TAATTCACGTGGACGT,0.795 kJ/mol
24,AACGTCACGTGTTTTT,0.251 kJ/mol
25,GCAGTCACGTGAATGG,1.76 kJ/mol

row,Sequence,relative binding free energy
1,AGTCACACGTGGTGGG,0.0418 kJ/mol
2,TTAAGCACGTGCAGTG,-1.09 kJ/mol
3,TAGTGCACGTGTTTTG,-0.167 kJ/mol
4,TTGGACACGTGAGGCG,1 kJ/mol
5,GGGCGCACGTGGGTGC,-1.38 kJ/mol
6,TTGAGCACGTGCAGTG,-0.335 kJ/mol
7,CTTTGCACGTGGTGTT,-0.251 kJ/mol
8,ATTTTCACGTGAAGTA,2.3 kJ/mol
9,CGGTGCACGTGTGTAG,0.502 kJ/mol
10,GATGTCACGTGCGGGG,0.795 kJ/mol
11,ATTAACACGTGTTTGA,-0.0418 kJ/mol
12,GATATCACGTGATGGA,1.34 kJ/mol
13,GAATTCACGTGGTTCG,1.21 kJ/mol
14,AGTTTCACGTGGGCCG,0.795 kJ/mol
15,GTTCGCACGTGAGATT,1.09 kJ/mol
16,CTGGACACGTGGGAGA,-0.377 kJ/mol
17,GTTTGCACGTGCGGTT,0.167 kJ/mol
18,GTAGGCACGTGAGATT,0.962 kJ/mol
19,TGAGACACGTGGGTTA,-1.17 kJ/mol
20,CTGGTCACGTGGCATA,0.502 kJ/mol
21,ATCTCCACGTGGGGGT,-0.879 kJ/mol
22,GGTTACACGTGGGATA,0.335 kJ/mol
23,CATTCCACGTGGTGGG,-0.0837 kJ/mol
24,TCAGGCACGTGGGACG,-0.418 kJ/mol
25,AATGACACGTGTGGCG,0.167 kJ/mol

row,Sequence,relative binding free energy
1,TGTCTCACGTGATGGT,1.38 kJ/mol
2,TGTGGCACGTGGGAGT,-0.711 kJ/mol
3,TGCGTCACGTGCGGTT,0.46 kJ/mol
4,TATTGCACGTGCAGGG,-0.711 kJ/mol
5,TATATCACGTGGGCGG,0.126 kJ/mol
6,CGTGTCACGTGATAGT,0.879 kJ/mol
7,GCTCACACGTGTTTGG,0.544 kJ/mol
8,TTCTTCACGTGTTGGA,1.09 kJ/mol
9,TGGCTCACGTGTTGGT,0.962 kJ/mol
10,TGAAGCACGTGGTTTA,-0.586 kJ/mol
11,TGGTACACGTGCAGTG,-0.167 kJ/mol
12,CGGGTCACGTGGGTTG,0 kJ/mol
13,TTCGACACGTGGGTAG,-0.753 kJ/mol
14,GGAGGCACGTGTTGCA,-0.46 kJ/mol
15,TGATTCACGTGTACGT,0.837 kJ/mol
16,CGGGTCACGTGATGCT,0.879 kJ/mol
17,TGGGTCACGTGTTAAG,0.167 kJ/mol
18,GAAGTCACGTGTGGAG,0.753 kJ/mol
19,GATTGCACGTGTGGTG,0.837 kJ/mol
20,TTACTCACGTGGAGTT,1.13 kJ/mol
21,GACAGCACGTGGTGTG,-0.293 kJ/mol
22,ATGGCCACGTGGGATT,-0.502 kJ/mol
23,CGCGTCACGTGGGAGG,0.0418 kJ/mol
24,TTTACCACGTGGTAAG,-0.335 kJ/mol
25,TGCCACACGTGGGTGG,-0.377 kJ/mol

row,Sequence,relative binding free energy
1,GGGGGCACGTGAGATG,0.92 kJ/mol
2,GGGGACACGTGGTGAC,-0.251 kJ/mol
3,TAACGCACGTGAGTGG,0.167 kJ/mol
4,GGTTACACGTGATAAG,1 kJ/mol
5,GTAAACACGTGGAGTT,0.502 kJ/mol
6,ATGTGCACGTGAAGTG,0.669 kJ/mol
7,CAGGGCACGTGTGTCG,0.0418 kJ/mol
8,CTGGGCACGTGTGGGA,-0.335 kJ/mol
9,TGCTGCACGTGGTATG,-0.126 kJ/mol
10,TCTAGCACGTGGCGGG,-1.17 kJ/mol
11,ATCGTCACGTGGAGAG,0.293 kJ/mol
12,GTAAGCACGTGGTTCG,-0.335 kJ/mol
13,CTTTACACGTGAAGGG,1.72 kJ/mol
14,GGGGTCACGTGGTCGG,0.251 kJ/mol
15,TAGTTCACGTGTGGTC,1.26 kJ/mol
16,TCAGTCACGTGTGGGT,0.293 kJ/mol
17,ATAGACACGTGAAGTT,0.669 kJ/mol
18,ACATGCACGTGAGTGT,0.628 kJ/mol
19,TAGTCCACGTGGTGGT,-0.0418 kJ/mol
20,ATTAACACGTGGGCGG,-0.711 kJ/mol
21,GTGTACACGTGTACGG,0.418 kJ/mol
22,CTTGTCACGTGCGTTT,-0.377 kJ/mol
23,GGAGACACGTGTATAG,0.126 kJ/mol
24,CGTGGCACGTGTTTAA,-0.0418 kJ/mol
25,TCGGTCACGTGTTGGA,0.669 kJ/mol

row,Sequence,relative binding free energy
1,AGATGCACGTGTTTTG,-0.209 kJ/mol
2,AGGGACACGTGTAGGT,0.209 kJ/mol
3,GGGTTCACGTGGTTAG,1.13 kJ/mol
4,ACGTACACGTGGGTTT,-0.502 kJ/mol
5,CTGGCCACGTGAGGGG,0.377 kJ/mol
6,TTAGTCACGTGTCGGA,0.293 kJ/mol
7,GTGATCACGTGTAATT,1.21 kJ/mol
8,TAAAGCACGTGTGTGT,-0.209 kJ/mol
9,ATTACCACGTGATGTT,0.251 kJ/mol
10,ACAGACACGTGTTGTG,0.167 kJ/mol
11,TTAGGCACGTGTTTTG,-0.502 kJ/mol
12,TGTGTCACGTGACTGA,0 kJ/mol
13,TAGTGCACGTGGCGGC,-0.544 kJ/mol
14,GGGTGCACGTGTCGGG,0.418 kJ/mol
15,CGGTGCACGTGGGGGG,-0.46 kJ/mol
16,CTTGGCACGTGAGTTG,0.544 kJ/mol
17,GGGGACACGTGGTAGG,0.0418 kJ/mol
18,CTCTTCACGTGTTGTT,0.669 kJ/mol
19,TAGTGCACGTGGAGTG,-0.293 kJ/mol
20,CATGGCACGTGGAGCG,0 kJ/mol
21,TGTCTCACGTGGAGTT,0.377 kJ/mol
22,GTAAGCACGTGCGGGG,-0.628 kJ/mol
23,GGAATCACGTGGTAAA,1 kJ/mol
24,AAATTCACGTGGGATG,1.17 kJ/mol
25,TTATTCACGTGAGCTA,1.97 kJ/mol

row,Sequence,relative binding free energy
1,TAAGGCACGTGGGGCC,-0.377 kJ/mol
2,TTTTCCACGTGAGGTT,0.795 kJ/mol
3,GGAGGCACGTGGGTAC,-0.92 kJ/mol
4,AGGCTCACGTGTGTAG,0.418 kJ/mol
5,ATTTTCACGTGTTTAG,1.26 kJ/mol
6,ATGTGCACGTGTTTCA,-0.711 kJ/mol
7,CGTGCCACGTGTGTTG,-0.795 kJ/mol
8,TAGGTCACGTGAAATG,0.837 kJ/mol
9,AGTTACACGTGATTGT,0.92 kJ/mol
10,CTAGGCACGTGTGTAT,-0.502 kJ/mol
11,GTGGACACGTGGACGG,0.502 kJ/mol
12,GTTATCACGTGGGGCT,0.0418 kJ/mol
13,TTCCGCACGTGGATGG,0.251 kJ/mol
14,AGGGTCACGTGACGTT,0.669 kJ/mol
15,ATAGTCACGTGGGTAA,-0.711 kJ/mol
16,TCGTTCACGTGATTTA,1.05 kJ/mol
17,GTAGTCACGTGCGGAG,0.209 kJ/mol
18,CGTTTCACGTGGTGCA,1 kJ/mol
19,ATCTACACGTGATGGT,0.962 kJ/mol
20,TAGGGCACGTGCGTAT,-0.335 kJ/mol
21,TTTTCCACGTGATGGA,1.13 kJ/mol
